This is an account of results in the antibiotic and cytotoxicity screens of Wong et al. (2023).

For one experiment, the system named is HSkMC. In words: cytotoxicity call (relative viability < 0.9). Particulars: 10 µM.
A further experiment has as its system HepG2. Briefly: cytotoxicity call (relative viability < 0.9). Particulars: 10 µM.
For the next experiment, the system named is S. aureus RN4220. Briefly: growth inhibition call (relative growth <= 0.2). As to conditions: 50 µM.

Some of the results follow.

On to `Cc1ccc(S(=O)(=O)N(C)C[C@H]2Oc3ccc(NC(=O)CCCN(C)C)cc3CC(=O)N([C@@H](C)CO)C[C@@H]2C)cc1`, for which the cytotoxicity call with HSkMC and in the experiment with HepG2 was “inactive” in each case. In addition, the growth inhibition call with S. aureus RN4220 is “inactive”.

For `C[C@@H]1CN([C@@H](C)CO)C(=O)c2cc(NC(=O)CCC(F)(F)F)ccc2O[C@@H](C)CCCCO[C@@H]1CN(C)C(=O)Cc1ccccc1`, the cytotoxicity call in the experiment on HSkMC and in the experiment on HepG2 was “inactive” each time. Moreover, the growth inhibition call in the experiment on S. aureus RN4220 is “inactive”.

For `Cc1[nH]c(=O)c(C#N)cc1-c1ccncc1`, the cytotoxicity call in the experiment with HSkMC and in the experiment with HepG2 was “inactive” each time. Besides, the growth inhibition call with S. aureus RN4220 is “inactive”.

Consider `O=C1C=CC(=O)N1`, for which the cytotoxicity call with HSkMC and in the experiment with HepG2 was “active” throughout. Moreover, the growth inhibition call with S. aureus RN4220 is “active”.

With `C=CC[C@H](CC(=O)N[C@@H](CO)Cc1ccccc1)C(=O)N[C@H](COC(=O)[C@@H](CC=C)Cc1ccc(F)cc1)Cc1c[nH]c2ccccc12`, the cytotoxicity call in the experiment with HSkMC and in the experiment on HepG2 was “inactive” in each case. Moreover, in the experiment on S. aureus RN4220, the growth inhibition call was “inactive”.

Take `C[C@H](CO)N1C[C@H](C)[C@@H](CN(C)Cc2ccccc2)Oc2ccc(NS(=O)(=O)c3cn(C)cn3)cc2C1=O`: the cytotoxicity call in the experiment with HSkMC and in the experiment on HepG2 was “inactive” each time. Besides, in the experiment on S. aureus RN4220, the growth inhibition call is “inactive”.

For `COc1ccc(S(=O)(=O)N(C)C[C@H]2OCCCC[C@H](C)Oc3ccc(NC(=O)Nc4ccc(C(F)(F)F)cc4)cc3C(=O)N([C@@H](C)CO)C[C@H]2C)cc1`, the cytotoxicity call with HSkMC and with HepG2 was “inactive” throughout. In the experiment with S. aureus RN4220, the growth inhibition call was “inactive”.

Consider `COc1ccc(NC(=O)N2C[C@H](O)COC[C@@H]3O[C@H](CC(=O)NCc4ccccc4OC)CC[C@H]32)cc1`, for which the cytotoxicity call in the experiment with HSkMC and in the experiment with HepG2 was “inactive” throughout. The growth inhibition call with S. aureus RN4220 was “inactive”.

For `COc1ccc(NC(=O)N(C)C[C@H]2OCCCC[C@@H](C)Oc3ccc(NC(=O)NC(C)C)cc3C(=O)N([C@H](C)CO)C[C@@H]2C)cc1`, the cytotoxicity call with HSkMC and in the experiment on HepG2 was “inactive” in each case. Further, in the experiment with S. aureus RN4220, the growth inhibition call was “inactive”.

As to `CN(C)CC#Cc1ccc([C@H]2[C@H](CO)N3C(=O)CN(C(=O)c4cccnc4)C[C@@H]23)cc1`, the cytotoxicity call with HSkMC and in the experiment with HepG2 was “inactive” each time. Besides, in the experiment with S. aureus RN4220, the growth inhibition call is “inactive”.

As to `C[C@@H]1CCCCO[C@H](CN(C)S(=O)(=O)c2cccs2)[C@@H](C)CN([C@H](C)CO)C(=O)c2cc(NC(=O)CCCCCC(=O)Nc3ccccc3N)ccc2O1`, the cytotoxicity call in the experiment on HSkMC and in the experiment on HepG2 was “inactive” throughout. The growth inhibition call with S. aureus RN4220 was “inactive”.

With `COc1ccc(CN(C)C[C@H]2Oc3c(NC(=O)c4cc(C)nn4C)cccc3C(=O)N([C@H](C)CO)C[C@@H]2C)cc1`, the cytotoxicity call in the experiment on HSkMC and with HepG2 was “inactive” in each case. Also, the growth inhibition call in the experiment with S. aureus RN4220 was “inactive”.

As to `O=C(C[C@@H]1C[C@H]2c3cc(NC(=O)Nc4ccc(C(F)(F)F)cc4)ccc3O[C@H]2[C@@H](CO)O1)NCc1ccc(Cl)cc1`, the cytotoxicity call with HSkMC and in the experiment on HepG2 was “inactive” throughout. Besides, in the experiment on S. aureus RN4220, the growth inhibition call was “inactive”.

With `Cc1nc(-c2ccncc2)sc1CN`, the cytotoxicity call in the experiment on HSkMC and with HepG2 was “inactive” each time. Further, in the experiment with S. aureus RN4220, the growth inhibition call is “inactive”.

For `C[C@@H]1CN([C@H](C)CO)C(=O)Cc2cc(NC(=O)C3CC3)ccc2O[C@@H]1CN(C)C(=O)Nc1ccc2c(c1)OCO2`, the cytotoxicity call in the experiment with HSkMC and in the experiment on HepG2 was “inactive” in each case. The growth inhibition call in the experiment on S. aureus RN4220 is “inactive”.

Turning to `C[C@H](CO)N1C[C@H](C)[C@H](CN(C)C(=O)c2cnccn2)Oc2cc(Br)ccc2S1(=O)=O`, the cytotoxicity call with HSkMC and in the experiment on HepG2 was “inactive” in each case. Moreover, the growth inhibition call in the experiment on S. aureus RN4220 is “inactive”.

Take `C[C@H]1CN([C@@H](C)CO)C(=O)c2cc(C#CC3(O)CCCC3)cnc2O[C@@H]1CN(C)S(C)(=O)=O`: the cytotoxicity call with HSkMC and with HepG2 was “inactive” in each case. Also, in the experiment with S. aureus RN4220, the growth inhibition call is “inactive”.

Take `C[C@@H]1CCCCO[C@@H](CN(C)CC2CC2)[C@@H](C)CN([C@H](C)CO)C(=O)c2cc(NC(=O)Nc3ccc(C(F)(F)F)cc3)ccc2O1`: the cytotoxicity call with HSkMC was “inactive”. The cytotoxicity call with HepG2 is “active”. Also, the growth inhibition call in the experiment with S. aureus RN4220 is “inactive”.

Take `Cc1cnc(NC(=O)C2=C(O)c3ccccc3S(=O)(=O)N2C)s1`: the cytotoxicity call in the experiment on HSkMC and in the experiment with HepG2 was “inactive” throughout. In addition, in the experiment on S. aureus RN4220, the growth inhibition call was “inactive”.

Consider `COc1ccc(NC(=O)Nc2ccc3c(c2)C(=O)N([C@H](C)CO)C[C@@H](C)[C@@H](CN(C)C(=O)NC2CCCCC2)OCCCC[C@@H](C)O3)cc1`, for which the cytotoxicity call in the experiment with HSkMC and in the experiment with HepG2 was “inactive” throughout. Further, in the experiment on S. aureus RN4220, the growth inhibition call is “inactive”.

Consider `CCCc1nc2c(C)cc(-c3nc4ccccc4n3C)cc2n1Cc1ccc(-c2ccccc2C(=O)O)cc1`, for which the cytotoxicity call in the experiment on HSkMC and in the experiment on HepG2 was “inactive” throughout. Moreover, in the experiment on S. aureus RN4220, the growth inhibition call was “inactive”.

Turning to `COc1ccc2cc(-c3cc(-c4cc(Cl)cc(Cl)c4)nn3[C@@H](C)c3ccc(C(=O)NCCC(=O)O)cc3)ccc2c1`, the cytotoxicity call in the experiment on HSkMC is “active”. Also, the cytotoxicity call in the experiment on HepG2 was “inactive”. In addition, the growth inhibition call with S. aureus RN4220 is “inactive”.

Take `CN1CCN(C(=O)C[C@H]2CC[C@@H]3[C@H](COC[C@H](O)CN3C(=O)C3CCCC3)O2)CC1`: the cytotoxicity call in the experiment with HSkMC and in the experiment with HepG2 was “inactive” in each case. Besides, the growth inhibition call in the experiment on S. aureus RN4220 was “inactive”.

Regarding `Cc1ccc(S(=O)(=O)N(C)C[C@H]2Oc3c(NS(=O)(=O)c4c(C)noc4C)cccc3C(=O)N([C@H](C)CO)C[C@H]2C)cc1`, the cytotoxicity call with HSkMC and in the experiment with HepG2 was “inactive” in each case. The growth inhibition call with S. aureus RN4220 was “inactive”.

As to `C[C@H]1CCCCO[C@H](CN(C)Cc2ccc3c(c2)OCO3)[C@@H](C)CN([C@@H](C)CO)C(=O)c2cc(NS(=O)(=O)c3ccc(Cl)cc3)ccc2O1`, the cytotoxicity call with HSkMC and in the experiment on HepG2 was “inactive” each time. The growth inhibition call with S. aureus RN4220 is “inactive”.

In the case of `Cc1noc(C)c1S(=O)(=O)Nc1ccc2c(c1)CC(=O)N([C@@H](C)CO)C[C@H](C)[C@H](CN(C)S(=O)(=O)c1cn(C)cn1)O2`, the cytotoxicity call in the experiment on HSkMC and in the experiment with HepG2 was “inactive” each time. Besides, the growth inhibition call with S. aureus RN4220 is “inactive”.

In the case of `C[C@H]1CN([C@@H](C)CO)C(=O)Cc2cc(NS(=O)(=O)c3ccccc3)ccc2O[C@H]1CN(C)CC1CC1`, the cytotoxicity call in the experiment on HSkMC (human skeletal muscle cells) and in the experiment on HepG2 was “inactive” each time. Moreover, in the experiment with S. aureus RN4220, the growth inhibition call is “inactive”.

In the case of `CC(C)(C)OC(=O)C[C@@H]1CC=CC[C@H](CC(=O)NCCO)C(=O)NCCOC1=O`, the cytotoxicity call with HSkMC and in the experiment on HepG2 was “inactive” each time. Further, in the experiment with S. aureus RN4220, the growth inhibition call is “inactive”.
